Values marked as one replicate rest on one cluster of the flow cell; about a third of the high ones do not repeat.
Each sequence was assayed on ATP (assay: switch fluorescence ratio, 500 uM ATP over buffer (Cy3 cluster intensity, sum of 5 cycles each) (fold (ratio)); higher = stronger signal-on switching upon ATP binding; sequences stand for … in TCGTCGGCAGCGTCAGATGTGTATAAGAGACAGTTTTTTTTTTTTTTTTTTTTTTTTT…TC). Settings: aptamer strand: ATP DNA aptamer (quencher-CACCTGGGGGAGTATTGCGGAGGAAGG + anchor), 100 nM annealed; ATP concentration: 500 uM; one replicate.
In short: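 Between each of five buffer/ATP cycles, the flow-cell was stripped with NaOH and re-annealed. Each cycle imaged Cy3-labelled switching-strand clusters, annealed to 100 nM quencher-labelled ATP aptamer on a modified Illumina MiSeq flow-cell, first in selection buffer and then after 15 min with 500 uM ATP at 22 °C. The fluorescence ratio is summed target-cycle over summed buffer-cycle Cy3 intensity per cluster, averaged per switch-domain sequence, with clusters outside 100-1000 RFU excluded.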
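Also: ATP exposure 15 min at 22 °C before imaging.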

| Sequence | switch fluorescence ratio |
| --- | --- |
| AGTGCCAAGG | 1.03 |
| AGTGCCATGT | 0.986 |
| AGTGCTCCCT | 1.1 |
| AGTGCTGAGC | 0.984 |
| AGTGGAGTAT | 0.979 |
| AGTGGATGTA | 1.01 |
| AGTGGCGCT | 1.03 |
| AGTGGGTTGC | 0.985 |
| AGTGGTCGAG | 0.993 |
| AGTGGTCGCC | 1.01 |
| AGTGTAAT | 1.04 |
| AGTGTACAGA | 1.06 |
| AGTGTACTGT | 1.05 |
| AGTGTAGATC | 1.12 |
| AGTGTAGCGC | 0.951 |
| AGTGTAGGTG | 1.05 |
| AGTGTATGTC | 0.99 |
| AGTGTCGCAC | 0.976 |
| AGTGTGGCT | 0.968 |
| AGTGTGGCTC | 1.01 |
| AGTGTGTAAC | 0.982 |
| AGTGTGTCGC | 0.919 |
| AGTGTTATCG | 0.977 |
| AGTGTTCTGG | 0.983 |
| AGTTAAACGG | 1.01 |

| Sequence | switch fluorescence ratio |
| --- | --- |
| AGTTAAAGGA | 1 |
| AGTTAACATT | 0.962 |
| AGTTAATCTG | 0.94 |
| AGTTAATGTC | 0.954 |
| AGTTAGATCA | 1.04 |
| AGTTAGGGG | 0.979 |
| AGTTAGTGTT | 0.994 |
| AGTTATAGAC | 1.06 |
| AGTTATAGCC | 0.946 |
| AGTTATGGTG | 0.972 |
| AGTTATTTA | 0.996 |
| AGTTCATGCG | 1.04 |
| AGTTCATTTG | 0.974 |
| AGTTCGACCC | 1.04 |
| AGTTCGTGA | 0.968 |
| AGTTCGTTCG | 1 |
| AGTTCTCGG | 1.02 |
| AGTTCTTGCG | 1.01 |
| AGTTGAATA | 1.03 |
| AGTTGATCAG | 0.954 |
| AGTTGCAATA | 1.59 |
| AGTTGCCGAC | 1.03 |
| AGTTGCGGAA | 0.999 |
| AGTTGCTAGC | 1.03 |
| AGTTGCTTAA | 0.964 |

| Sequence | switch fluorescence ratio |
| --- | --- |
| AGTTGGAACG | 1.13 |
| AGTTGGAATA | 1 |
| AGTTGGCGTG | 1.01 |
| AGTTGGGAAG | 1 |
| AGTTGGGTAC | 0.995 |
| AGTTGTAGAA | 1.03 |
| AGTTGTAGAG | 1.03 |
| AGTTGTCTAT | 1 |
| AGTTGTTACC | 1 |
| AGTTGTTCCT | 1.03 |
| AGTTTAACGT | 1.01 |
| AGTTTACTAT | 1.01 |
| AGTTTAGCGT | 1.01 |
| AGTTTAGCTT | 1 |
| AGTTTATGA | 1 |
| AGTTTCA | 1 |
| AGTTTCTGCA | 0.978 |
| AGTTTCTGCT | 1.02 |
| AGTTTGCCGG | 1.05 |
| AGTTTTCCTT | 1.01 |
| AGTTTTTCAT | 0.992 |
| AGTTTTTGGA | 0.996 |
| ATAAAACAGG | 1 |
| ATAAAATAGT | 1.03 |
| ATAAACGCAC | 1.8 |

| Sequence | switch fluorescence ratio |
| --- | --- |
| ATAAACGGAT | 1.01 |
| ATAAAGTGAG | 0.992 |
| ATAAATACGC | 1.02 |
| ATAACAATAG | 1.06 |
| ATAACATCTA | 1.04 |
| ATAACCCCAC | 1.26 |
| ATAACGGGTG | 1.16 |
| ATAACTTCCG | 1.26 |
| ATAAGAGACA | 1.03 |
| ATAAGAGTTA | 1.04 |
| ATAAGATATA | 1.07 |
| ATAAGATTAG | 0.977 |
| ATAAGCCATG | 1.03 |
| ATAAGCTAA | 0.963 |
| ATAAGCTCAA | 1.03 |
| ATAAGGACGC | 1.07 |
| ATAAGGAGCT | 0.988 |
| ATAAGTATTC | 0.974 |
| ATAAGTTACG | 1.09 |
| ATAAGTTCAT | 0.986 |
| ATAATAATA | 0.945 |
| ATAATCATGT | 0.97 |
| ATAATCTTTA | 0.983 |
| ATAATGCAGT | 0.994 |
| ATAATGGCTA | 1.02 |
